Experimental data from patent publication US20180346523A1 (ALBERT EINSTEIN COLLEGE OF MEDICINE, published 2018).

What was measured:
[1] = target: T1, PpsR2-mVenus-CAAX (Rhodopseudomonas palustris); experiment: translocation assay in HeLa cells, 650 nm light after 740 nm light
T1 construct: also called PpsR2(C439S)-20aaLinker-mVenus-Kras4BCT; pKA-140; not shown: mVenus, engineered yellow fluorescent protein
T1 chain: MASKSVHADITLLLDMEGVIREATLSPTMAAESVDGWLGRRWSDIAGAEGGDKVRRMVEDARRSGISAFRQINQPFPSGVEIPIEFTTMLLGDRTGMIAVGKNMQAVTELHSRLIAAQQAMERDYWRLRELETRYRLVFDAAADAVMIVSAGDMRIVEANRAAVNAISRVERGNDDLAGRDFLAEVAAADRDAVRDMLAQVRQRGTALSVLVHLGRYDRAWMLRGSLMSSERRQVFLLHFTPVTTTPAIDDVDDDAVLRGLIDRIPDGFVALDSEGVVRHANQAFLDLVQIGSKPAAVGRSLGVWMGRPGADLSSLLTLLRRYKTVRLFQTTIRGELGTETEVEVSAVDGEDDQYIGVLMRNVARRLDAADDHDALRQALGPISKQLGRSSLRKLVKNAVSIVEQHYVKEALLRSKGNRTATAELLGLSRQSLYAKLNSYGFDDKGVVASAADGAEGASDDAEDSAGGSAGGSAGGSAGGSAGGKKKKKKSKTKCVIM

[2] = target: T2, NLS-PpsR2-mVenus (Rhodopseudomonas palustris); experiment: nuclear recruitment assay in HeLa cells, 740 nm light against darkness
T2 construct: Localized to the nucleus of HeLa cells; also called NLS-PpsR2(C439S)-20aaLinker-mVenus; pCMV-160; not shown: mVenus, engineered yellow fluorescent protein
T2 chain: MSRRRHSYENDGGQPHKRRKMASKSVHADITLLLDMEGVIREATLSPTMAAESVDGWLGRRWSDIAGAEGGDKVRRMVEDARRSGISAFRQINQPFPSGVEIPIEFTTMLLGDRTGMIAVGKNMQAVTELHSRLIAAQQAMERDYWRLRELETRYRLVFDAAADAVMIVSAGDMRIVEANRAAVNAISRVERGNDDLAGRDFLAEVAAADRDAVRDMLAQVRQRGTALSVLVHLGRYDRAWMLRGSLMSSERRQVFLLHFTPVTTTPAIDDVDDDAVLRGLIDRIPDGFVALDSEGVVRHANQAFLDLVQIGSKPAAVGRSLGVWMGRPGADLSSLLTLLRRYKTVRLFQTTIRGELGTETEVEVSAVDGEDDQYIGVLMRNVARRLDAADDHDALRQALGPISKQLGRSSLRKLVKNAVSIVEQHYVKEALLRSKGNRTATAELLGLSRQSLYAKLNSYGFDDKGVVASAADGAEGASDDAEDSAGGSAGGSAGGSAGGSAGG

[3] = target: T2, NLS-PpsR2-mVenus; experiment: nuclear recruitment assay in HeLa cells, epifluorescence microscopy, darkness
[4] = target: T2, NLS-PpsR2-mVenus; experiment: nuclear recruitment assay in HeLa cells, epifluorescence microscopy, 740 nm light

B1: BphP1-mCherry (other)
chain: [omitted - about 300 residues]FAQSQSELFVQRLEQRMIEAITREGDWRAAIFDTSQSILQPLHADGCALVYEDQIRTIGDVPSTQDVREIAGWLDRQPRAAVTSTASLGLDVPELAHLTRMASGVVAAPISDHRGEFLMWFRPERVHTVTWGGDPKKPFTMGDTPADLSPRRSFAKWHQVVEGTSDPWTAADLAAARTIGQTVADIVLQFRAVRTLIAREQYEQFSSQVHASMQPVLITDAEGRILLMNDSFRDMLPAGSPSAVHLDDLAGFFVESNDFLRNVAELIDHGRGWRGEVLLRGAGNRPLPLAVRADPVTRTEDQSLGFVLIFSDATDRRTADAARTRFQEGILASARPGVRLDSKSDLLHEKLLSALVENAQLAALEITYGVETGRIAELLEGVRQSMLRTAEVLGHLVQHAARTAGSDSSSNGSQNKKDSAGSAGSAG
modifications: endogenous biliverdin chromophore of the HeLa cells
notes: Expressed in the cytoplasm of HeLa cells; also called pKA-141; not shown: mCherry, engineered red fluorescent protein
For B1, which “fold higher initial rate of cytoplasmic signal recovery under 650 nm light against darkness” value [1] is on record?
The value was 1.6 fold.

What about the “fold increase of the BphP1-mCherry signal in nuclei of illuminated cells” value [2] of the same binder?
Its value is ~3.5 fold.

What about the “mCherry intensity ratio between the nucleus and cytoplasm, in darkness” value [3] of the same binder?
The value was ~0.5.

What about the “mCherry nucleus/cytoplasm ratio, after 740 nm illumination” value [4] of the same binder?
Its value is 1.8.
